In the supplement of paper PMC12423691:
The list shows a part of the results. Binding of human transcription factors and regulators to the viral nucleoprotein by AlphaScreen, crude cell-free proteins, amounts not normalised, one pass. Fold of the Venus control; higher = more signal. No active / inactive call. Single-pass screen; sequences are the whole Swiss-Prot entries looked up by name.

B1: NR2C1, P13056 (protein)
chain: MATIEEIAHQIIEQQMGEIVTEQQTGQKIQIVTALDHNTQGKQFILTNHDGSTPSKVILARQDSTPGKVFLTTPDAAGVNQLFFTTPDLSAQHLQLLTDNSPDQGPNKVFDLCVVCGDKASGRHYGAVTCEGCKGFFKRSIRKNLVYSCRGSKDCIINKHHRNRCQYCRLQRCIAFGMKQDSVQCERKPIEVSREKSSNCAASTEKIYIRKDLRSPLTATPTFVTDSESTRSTGLLDSGMFMNIHPSGVKTESAVLMTSDKAESCQGDLSTLANVVTSLANLGKTKDLSQNSNEMSMIESLSNDDTSLCEFQEMQTNGDVSRAFDTLAKALNPGESTACQSSVAGMEGSVHLITGDSSINYTEKEGPLLSDSHVAFRLTMPSPMPEYLNVHYIGESASRLLFLSMHWALSIPSFQALGQENSISLVKAYWNELFTLGLAQCWQVMNVATILATFVNCLHNSLQQDKMSTERRKLLMEHIFKLQEFCNSMVKLCIDGYEYAYLKAIVLFSPDHPSLENMEQIEKFQEKAYVEFQDYITKTYPDDTYRLSRLLLRLPALRLMNATITEELFFKGLIGNIRIDSVIPHILKMEPADYNSQIIGHSI
B2: ZRANB2, O95218 (protein)
chain: MSTKNFRVSDGDWICPDKKCGNVNFARRTSCNRCGREKTTEAKMMKAGGTEIGKTLAEKSRGLFSANDWQCKTCSNVNWARRSECNMCNTPKYAKLEERTGYGGGFNERENVEYIEREESDGEYDEFGRKKKKYRGKAVGPASILKEVEDKESEGEEEDEDEDLSKYKLDEDEDEDDADLSKYNLDASEEEDSNKKKSNRRSRSKSRSSHSRSSSRSSSPSSSRSRSRSRSRSSSSSQSRSRSSSRERSRSRGSKSRSSSRSHRGSSSPRKRSYSSSSSSPERNRKRSRSRSSSSGDRKKRRTRSRSPERRHRSSSGSSHSGSRSSSKKK
B3: MYNN, Q9NPC7 (protein)
chain: MQYSHHCEHLLERLNKQREAGFLCDCTIVIGEFQFKAHRNVLASFSEYFGAIYRSTSENNVFLDQSQVKADGFQKLLEFIYTGTLNLDSWNVKEIHQAADYLKVEEVVTKCKIKMEDFAFIANPSSTEISSITGNIELNQQTCLLTLRDYNNREKSEVSTDLIQANPKQGALAKKSSQTKKKKKAFNSPKTGQNKTVQYPSDILENASVELFLDANKLPTPVVEQVAQINDNSELELTSVVENTFPAQDIVHTVTVKRKRGKSQPNCALKEHSMSNIASVKSPYEAENSGEELDQRYSKAKPMCNTCGKVFSEASSLRRHMRIHKGVKPYVCHLCGKAFTQCNQLKTHVRTHTGEKPYKCELCDKGFAQKCQLVFHSRMHHGEEKPYKCDVCNLQFATSSNLKIHARKHSGEKPYVCDRCGQRFAQASTLTYHVRRHTGEKPYVCDTCGKAFAVSSSLITHSRKHTGEKPYICGICGKSFISSGELNKHFRSHTGERPFICELCGNSYTDIKNLKKHKTKVHSGADKTLDSSAEDHTLSEQDSIQKSPLSETMDVKPSDMTLPLALPLGTEDHHMLLPVTDTQSPTSDTLLRSTVNGYSEPQLIFLQQLY
B4: TBX18, O95935 (protein)
chain: MAEKRRGSPCSMLSLKAHAFSVEALIGAEKQQQLQKKRRKLGAEEAAGAVDDGGCSRGGGAGEKGSSEGDEGAALPPPAGATSGPARSGADLERGAAGGCEDGFQQGASPLASPGGSPKGSPARSLARPGTPLPSPQAPRVDLQGAELWKRFHEIGTEMIITKAGRRMFPAMRVKISGLDPHQQYYIAMDIVPVDNKRYRYVYHSSKWMVAGNADSPVPPRVYIHPDSPASGETWMRQVISFDKLKLTNNELDDQGHIILHSMHKYQPRVHVIRKDCGDDLSPIKPVPSGEGVKAFSFPETVFTTVTAYQNQQITRLKIDRNPFAKGFRDSGRNRMGLEALVESYAFWRPSLRTLTFEDIPGIPKQGNASSSTLLQGTGNGVPATHPHLLSGSSCSSPAFHLGPNTSQLCSLAPADYSACARSGLTLNRYSTSLAETYNRLTNQAGETFAPPRTPSYVGVSSSTSVNMSMGGTDGDTFSCPQTSLSMQISGMSPQLQYIMPSPSSNAFATNQTHQGSYNTFRLHSPCALYGYNFSTSPKLAASPEKIVSSQGSFLGSSPSGTMTDRQMLPPVEGVHLLSSGGQQSFFDSRTLGSLTLSSSQVSAHMV
B5: JUN, P05412 (protein)
chain: MTAKMETTFYDDALNASFLPSESGPYGYSNPKILKQSMTLNLADPVGSLKPHLRAKNSDLLTSPDVGLLKLASPELERLIIQSSNGHITTTPTPTQFLCPKNVTDEQEGFAEGFVRALAELHSQNTLPSVTSAAQPVNGAGMVAPAVASVAGGSGSGGFSASLHSEPPVYANLSNFNPGALSSGGGAPSYGAAGLAFPAQPQQQQQPPHHLPQQMPVQHPRLQALKEEPQTVPEMPGETPPLSPIDMESQERIKAERKRMRNRIAASKCRKRKLERIARLEEKVKTLKAQNSELASTANMLREQVAQLKQKVMNHVNSGCQLMLTQQLQTF
B6: CAPN3, P20807 (protein)
chain: MPTVISASVAPRTAAEPRSPGPVPHPAQSKATEAGGGNPSGIYSAIISRNFPIIGVKEKTFEQLHKKCLEKKVLYVDPEFPPDETSLFYSQKFPIQFVWKRPPEICENPRFIIDGANRTDICQGELGDCWFLAAIACLTLNQHLLFRVIPHDQSFIENYAGIFHFQFWRYGEWVDVVIDDCLPTYNNQLVFTKSNHRNEFWSALLEKAYAKLHGSYEALKGGNTTEAMEDFTGGVAEFFEIRDAPSDMYKIMKKAIERGSLMGCSIDDGTNMTYGTSPSGLNMGELIARMVRNMDNSLLQDSDLDPRGSDERPTRTIIPVQYETRMACGLVRGHAYSVTGLDEVPFKGEKVKLVRLRNPWGQVEWNGSWSDRWKDWSFVDKDEKARLQHQVTEDGEFWMSYEDFIYHFTKLEICNLTADALQSDKLQTWTVSVNEGRWVRGCSAGGCRNFPDTFWTNPQYRLKLLEEDDDPDDSEVICSFLVALMQKNRRKDRKLGASLFTIGFAIYEVPKEMHGNKQHLQKDFFLYNASKARSKTYINMREVSQRFRLPPSEYVIVPSTYEPHQEGEFILRVFSEKRNLSEEVENTISVDRPVKKKKTKPIIFVSDRANSNKELGVDQESEEGKGKTSPDKQKQSPQPQPGSSDQESEEQQQFRNIFKQIAGDDMEICADELKKVLNTVVNKHKDLKTHGFTLESCRSMIALMDTDGSGKLNLQEFHHLWNKIKAWQKIFKHYDTDQSGTINSYEMRNAVNDAGFHLNNQLYDIITMRYADKHMNIDFDSFICCFVRLEGMFRAFHAFDKDGDGIIKLNVLEWLQLTMYA

These binders were tested against nucleoprotein N of Crimean-Congo hemorrhagic fever virus (assay: AlphaScreen luminescence signal relative to Venus negative control (fold); higher = stronger binding to CCHFV N).
Experimental: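 AlphaScreen binding of cell-free made, FLAG-GST-tagged human transcription factors and regulators (crude translation products) to biotinylated N protein; signal as fold of the FLAG-GST-Venus control. One pass.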

| Binder | AlphaScreen luminescence signal |
| --- | --- |
| B1 | 2.93 |
| B2 | 1.07 |
| B3 | 3.81 |
| B4 | 2.33 |
| B5 | 2.6 |
| B6 | 1.77 |
